Assay results reported in PubChem BioAssay AID686979 (National Center for Advancing Translational Sciences (NCATS), 2013).
Among all 420,000 compounds or so, about 50,000 (12%) were called active. Inconclusive means that the source gave no clear call. Such entries were picked first, then a sample of the others. Calls follow the shape of the dose curve; as a rule, active = well fitted inhibition curve with a large enough effect; inconclusive = small, poorly fitted or top-dose-only effect; inactive = flat fitted curve, though single readings scatter. Potencies of inconclusive entries are left out as doubtful fits.

experiment: qHTS for Inhibitors of human tyrosyl-DNA phosphodiesterase 1 (TDP1): qHTS in cells in presence of CPT; settings: chicken DT40 Tdp1-/-;hTDP1 cells + 20 nM CPT, ATP luminescence, 48 h; activity change, negative = growth inhibition: at 46.2 µM (top of the series) unless noted; also: nearly all actives have a fitted effect of over 55% in size
How it was run: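 Chicken DT40 Tdp1-/- cells complemented with human TDP1, 400 cells/well, exposed to compounds plus 20 nM camptothecin for at least 48 h at 37 C; viability read as ATP content by CellTiter-Glo luminescence.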
% is scaled to controls: 0 for no effect and ±100 for the full control effect; potency is read from the fitted curve at half-maximal effect; tags tell the direction and shape of the fitted curve.

Row | SMILES | activity change, negative = growth inhibition | Potency
1 | COCCn1c(=O)c(C)nc2cnc(Oc3cccc(Cl)c3)nc21 | inactive: -26.8% | 
2 | COc1ccc(CCNC(c2ccc(F)cc2)c2nnc(-c3ccccc3Cl)o2)cc1OC (stereo not drawn) |  | inconclusive [inhibitor, single point]
3 | O=C1Nc2ccccc2/C1=C/C(=O)c1cccs1 |  | active: 6.51 µM
4 | COCCOCCn1c(/C=C/c2ccccc2)nc2ccccc21 |  | inconclusive [inhibitor, single point]
5 | Cc1nn2c(-c3ccncc3)nnc2c2ccccc12 |  | inconclusive [inhibitor, single point]
6 | O=C(CN1CCOc2ccccc21)NC1CCN(Cc2ccccc2)CC1 |  | inconclusive [inhibitor, single point]
7 | O=C(CN1c2ccccc2S(=O)(=O)c2ccccc21)Nc1ccccc1Cl |  | inconclusive [inhibitor, single point]
8 | Cn1c(=O)c(-c2cc(F)cc(F)c2)nc2cnc(Oc3cccc(Cl)c3)nc21 | inactive: 6.24% | 
9 | Cc1ncoc1C(=O)N1CCCC(C(=O)c2cccc3ccccc23)C1 (stereo not drawn) |  | inconclusive [inhibitor, partial curve]
10 | Cn1c(C(C#N)C(=O)c2sc3ccccc3c2Cl)nc2ccccc21 (stereo not drawn) |  | inconclusive [inhibitor, single point]
11 | Cc1ccc(S(=O)(=O)NC2CCSC2=O)cc1C (stereo not drawn) | inactive: 2.9% | 
12 | COc1ccc(-n2nc(C(=O)NCC(=O)N3CCCCCC3)c3ccccc3c2=O)cc1Cl |  | active: 18.4 µM
13 | CCCCSc1nc2ccccc2n1CC(=O)O |  | inconclusive [inhibitor, full curve, poor fit]
14 | CN(C)S(=O)(=O)c1ccc(N2CCCC2)c(C(=O)Nc2ccc(F)cc2F)c1 |  | inconclusive [inhibitor, single point]
15 | COc1ccccc1N(CC(=O)Nc1ccc2c(c1)OCO2)S(=O)(=O)c1ccc(C)cc1 |  | active: 23.1 µM
16 | C[C@]12c3[nH]c4ccccc4c3CCN1C(=O)C(CC(=O)NCC13CC4CC(CC(C4)C1)C3)C[C@@H]2C(=O)N1CCCCC1 (stereo partly drawn) |  | active: 20.6 µM
17 | CCOc1ccc2[nH]c(=O)c(CN(Cc3ccc(C)cc3)C(=O)N3CCCC3)cc2c1 |  | inconclusive [inhibitor, single point]
18 | Cc1ccc(Cc2c(-c3cccc(Br)c3)nc3cc(C)c(Br)c(C)n23)cc1 |  | inconclusive [inhibitor, partial curve]
19 | CCC12CCC3c4ccc(O)cc4CCC3C1CC(O)C2O (stereo not drawn) |  | inconclusive [inhibitor, single point]
20 | C[C@@]12C(=O)OC(=O)[C@@]1(C)C1CCC2O1 | inactive: -9.05% | 
21 | CC(NC(=O)c1ccc2c(c1)OCO2)C1CCCO1 (stereo not drawn) | inactive: -15.9% | 
22 | Cc1ccc(-n2c(-c3ccccc3)nnc2-c2cccs2)cc1 |  | inconclusive [inhibitor, full curve, poor fit]
23 | COc1ccc(C(=O)N(Cc2ccco2)C(C(=O)NC2CCCC2)c2ccc(O)cc2)cc1OC (stereo not drawn) |  | inconclusive [inhibitor, single point]
24 | CC1(C(=O)NS(=O)(=O)c2cccc(C#N)c2)CCN1C(=O)c1ccccc1CCc1ccccc1 (stereo not drawn) | inactive: -17.2% | 
25 | Cc1ccc(-n2ncc3c2CCCC3NC(=O)c2ocnc2C)cc1C (stereo not drawn) |  | active: 10.3 µM

Row | SMILES | activity change, negative = growth inhibition | Potency
26 | Cc1c(CC(=O)NC(C)C)c(=O)oc2cc3c(cc12)CCC(C)(C)O3 |  | active: 20.6 µM
27 | CCCOc1ccc(-c2nonc2NC(=O)c2oc3ccc(Cl)cc3c2C)cc1OCCC |  | inconclusive [inhibitor, partial curve, poor fit]
28 | CCCc1c(O)nc(SCCN(CCC)CCC)[nH]c1=O | inactive: -23.2% | 
29 | COc1cccc2sc(N(CCCN(C)C)C(=O)C(c3ccccc3)c3ccccc3)nc12 |  | active: 20.6 µM
30 | CCc1cccc(NC(=O)C2Cc3ccccc3N2C(=O)c2ccccc2)c1 (stereo not drawn) |  | inconclusive [inhibitor, partial curve]
31 | Fc1ccc(-c2nn3c(C4COc5ccccc5O4)nnc3s2)cc1 (stereo not drawn) |  | inconclusive [inhibitor, single point]
32 | CCOc1ccc(Cl)cc1S(=O)(=O)N1CCN(c2ccc(C)c(C)c2)CC1 |  | inconclusive [inhibitor, single point]
33 | CCOc1cccc(C2c3[nH]c4ccccc4c3CCN2C(=O)CSCc2ccc(F)cc2)c1 (stereo not drawn) |  | active: 18.4 µM
34 | Cc1cc(Br)ccc1NCc1ccccn1 | inconclusive: -32.5% [inhibitor] | 
35 | Cc1snc2sc(C(=O)c3ccc(Br)cc3)c(N)c12 |  | inconclusive [inhibitor, single point]
36 | CC1CCN(c2ccc(NC(=O)c3ccccc3[N+](=O)[O-])cc2)CC1 | inactive: -12.8% | 
37 | Cc1noc(C)c1NC(=O)N(C)C[C@@H]1Oc2ccc(NC(=O)C3CCCCC3)cc2C(=O)N([C@@H](C)CO)C[C@H]1C | inactive: -3.69% | 
38 | O=C(c1ccc2c(c1)N(Cc1c(F)cccc1Cl)C(=O)c1ccccc1S2)N1CCOCC1 | inactive: -20% | 
39 | O=C(c1ccncc1)N1N=C2CCCCCC2C1(O)C(F)(F)F (stereo not drawn) | inactive: 0.0827% | 
40 | CCOc1cc(C2C(C#N)=C(N)Oc3cc(N)ccc32)ccc1O (stereo not drawn) | inconclusive: -31.4% [inhibitor] | 
41 | Cc1ccc(C(=O)OCC(=O)c2ccc(S(=O)(=O)N3CCCCC3)cc2)o1 | inactive: -8.15% | 
42 | CCCNC(=O)c1ccc(-c2nc(CS(=O)(=O)c3ccc(C)cc3)c(C)o2)cc1 |  | inconclusive [inhibitor, partial curve]
43 | Cc1cccc(C)c1NC(=O)CN1CCN(C(=O)CN2C(=O)NC3(CCCCC3C)C2=O)CC1 (stereo not drawn) | inactive: -19.8% | 
44 | Cc1ccc(-c2csc(NC(=O)CCNC(=O)c3ccccc3Cl)n2)cc1 |  | inconclusive [inhibitor, single point]
45 | COc1ccc(OC)c(NC(=O)CSc2ncc3c(n2)-c2ccccc2N(C)S3(=O)=O)c1 |  | inconclusive [inhibitor, single point]
46 | CC(=O)Nc1ccc(S(=O)(=O)N(C)CC(=O)OCC(=O)Nc2ccc3c(c2)OCO3)cc1 | inactive: 0.443% | 
47 | O=C(C1COc2ccccc2O1)N(Cc1cccnc1)c1nc2c(Cl)cccc2s1 (stereo not drawn) | inactive: -2.15% | 
48 | COc1cc2c(NC3CCN(C)CC3)nc(N3CCCN(C)CC3)nc2cc1OCC1CCCCN1 (stereo not drawn) |  | active: 11.2 µM
49 | CCN1CCN(C(=O)c2cnn(-c3ncc4c(n3)-c3ccccc3CCC4)c2COC)CC1 | inactive: -10.3% | 
50 | N#CCN1CCC(c2cc(-c3ccco3)n[nH]2)CC1 |  | inconclusive [inhibitor, single point]

Row | SMILES | activity change, negative = growth inhibition | Potency
51 | C=CC[C@@H](CC(=O)NCCO)C(=O)NC[C@H](OC(=O)[C@@H](CC=C)CC(=O)OC(C)(C)C)c1ccccc1 |  | inconclusive [inhibitor, single point]
52 | O=C(O)c1cccc(-c2nnn(Cc3ccccc3)n2)c1 | inactive: -1.13% | 
53 | CC(OC(=O)c1ccccc1C(=O)N(C)c1ccccc1)C(=O)Nc1ccccc1[N+](=O)[O-] (stereo not drawn) | inactive: -27.6% | 
54 | Cc1ccccc1-c1noc(-c2cccnc2N2CCN(c3ccccc3)CC2)n1 | inactive: -12.2% | 
55 | CCCNC(=O)C1(C)CCCN(Cc2ccccc2N(C)C)C1 (stereo not drawn) |  | inconclusive [inhibitor, single point]
56 | CCOC(=O)/C(C#N)=C/c1ccc(-c2ccc(Br)cc2)o1 |  | inconclusive [inhibitor, partial curve]
57 | COc1ccc(CN2CCN(S(=O)(=O)c3ccc(C)cc3)CC2)cc1OC |  | inconclusive [inhibitor, full curve, poor fit]
58 | O=C(C[n+]1ccccc1Cl)c1ccc2c(c1)CCCC2 |  | inconclusive [inhibitor, single point]
59 | Cc1c(C)c2ccc(OCC(=O)NC3CCN(Cc4ccccc4)CC3)c(C)c2oc1=O |  | inconclusive [inhibitor, single point]
60 | Cc1cccc(N2CCN(C(=O)COc3cc4oc(=O)cc(C)c4cc3Cl)CC2)c1C | inactive: -24.6% | 
61 | COc1ccc(NC(C)=O)cc1CNC(=O)COc1c(C)c(C)cc(C)c1C |  | inconclusive [inhibitor, single point]
62 | COc1cc(-c2c(-c3ccsc3)sc3ccccc23)cc(OC)c1OC | inactive: 0.894% | 
63 | COc1cccc(C(=O)Nc2cccc(-c3cn4ccsc4n3)c2)c1OC |  | inconclusive [inhibitor, single point]
64 | O=c1cnn(-c2ccccc2)c(-c2ccccc2)c1 |  | inconclusive [inhibitor, single point]
65 | Cc1ccc2c(C)nc(Nc3nc(CSc4nc5ccccc5[nH]4)cc(=O)[nH]3)nc2c1 |  | active: 11.6 µM
66 | COc1cc(/C=N/NC(=S)Nc2cccnc2)cc(OC)c1O | inactive: 0.37% | 
67 | Cc1ccc(NC(=O)CSCC(=O)N=c2sccn2C)cc1 | inactive: -20.4% | 
68 | CN(CC(=O)NCC1CCCO1)S(=O)(=O)c1ccc2ccccc2c1 (stereo not drawn) | inactive: -5.15% | 
69 | Nc1nonc1-n1nnc(C(=O)N/N=C/c2cccs2)c1-c1ccc2c(c1)OCO2 |  | inconclusive [inhibitor, full curve, poor fit]
70 | COc1ccc(-c2nnc(SCC(=O)Nc3cc(C)on3)o2)cc1 |  | inconclusive [inhibitor, single point]
71 | O=C(Nc1ccc(F)cc1F)c1cc(-c2ccc(Cl)cc2)on1 | inactive: -0.85% | 
72 | COc1ccc(CNCCS(=O)(=O)NCc2ccccc2)cc1 |  | inconclusive [inhibitor, single point]
73 | COC(=O)c1cc(-c2ccc(S(=O)(=O)N3CCCCC3)cc2)c(C(F)(F)F)s1 |  | inconclusive [inhibitor, single point]
